Publication PMC6919601, “Identification of Plasmodium dipeptidyl aminopeptidase allosteric inhibitors by high throughput screening” (PLoS ONE, 2019)
The whole screen tested about 110,000 compounds, of which about 230 (0.21%) showed an effect of 50% or more. The list shows a part of the results.

Target: DPAP1 (Plasmodium falciparum, UniProt Q8IIJ9)
Experiment: primary screen, percent inhibition; read by cleavage of a fluorogenic dipeptide substrate; higher = more effect of the substance
Design: species or system P. falciparum D10 trophozoite lysates; single well
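Further: 30 min substrate incubation versus DMSO and 10 µM JCP410 controls.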

DPAP1, sequence (Q8IIJ9 whole entry, looked up): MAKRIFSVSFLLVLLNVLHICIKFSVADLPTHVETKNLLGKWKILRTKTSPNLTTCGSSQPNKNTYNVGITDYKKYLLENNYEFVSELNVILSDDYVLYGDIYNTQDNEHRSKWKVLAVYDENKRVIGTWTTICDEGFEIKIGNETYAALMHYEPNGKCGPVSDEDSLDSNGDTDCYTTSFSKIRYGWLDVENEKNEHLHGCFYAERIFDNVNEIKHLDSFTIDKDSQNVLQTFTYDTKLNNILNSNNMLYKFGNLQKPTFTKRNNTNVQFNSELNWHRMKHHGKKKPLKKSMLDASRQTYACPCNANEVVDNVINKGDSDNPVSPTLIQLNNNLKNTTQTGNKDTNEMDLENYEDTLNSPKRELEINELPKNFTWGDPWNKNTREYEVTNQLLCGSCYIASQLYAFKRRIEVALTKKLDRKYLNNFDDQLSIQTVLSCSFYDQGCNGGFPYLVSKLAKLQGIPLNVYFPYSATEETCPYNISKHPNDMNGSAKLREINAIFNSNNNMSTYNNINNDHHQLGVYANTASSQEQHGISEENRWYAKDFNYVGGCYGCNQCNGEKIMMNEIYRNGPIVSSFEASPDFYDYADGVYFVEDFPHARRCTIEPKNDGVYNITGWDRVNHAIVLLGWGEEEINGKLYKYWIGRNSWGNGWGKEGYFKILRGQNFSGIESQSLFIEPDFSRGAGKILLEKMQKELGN

Row | SMILES | % Inhibition @ 10 uM [%]
1 | O=C1c2ccccc2C(=O)C1c1nc2ccccc2[nH]1 | 3.96
2 | CN(C)c1ccc(-c2ccc(O)cc2O)cc1 | 2.13
3 | O=C1c2cccc3c([N+](=O)[O-])ccc(c23)N1c1ccccc1 | 13.9
4 | Cc1cc(C)c2nc(Nc3nc(C)cc(O)n3)nc(C)c2c1 | -2.67
5 | Cc1nc(SCc2nc3ccccc3[nH]2)nc(O)c1Cc1ccccc1 | -2.21
6 | CCCc1nn(-c2ccc(F)cc2)c(O)c1/C=N/CC1CCNCC1 | 1.98
7 | N#Cc1nc(-c2ccc([N+](=O)[O-])cc2)oc1N1CCOCC1 | -3.98
8 | COc1cccc(C2CC(C(F)(F)F)n3ncc(C(=O)N4CCOCC4)c3N2)c1 (stereo not drawn) | 0.0289
9 | COc1cccc2c1cc1c(=O)n(CC(=O)NCc3ccc4c(c3)OCO4)nc(C)n12 | 1.68
10 | COc1ccc(C(=O)N2CCN(Cc3cc(OC)c(O)c(OC)c3)CC2)cc1 | -4.35
11 | CCCCOc1cccc(C2c3c(oc4ccccc4c3=O)C(=O)N2c2nc(C)c(C)s2)c1 (stereo not drawn) | -2.92
12 | COc1cc(/C=C2\SC(=O)N(Cc3ccccc3)C2=O)c(Br)cc1OCC(=O)O | 16.5
13 | CC(CCc1ccccc1)NC(=O)CNC(=S)N1CC2CC(C1)c1cccc(=O)n1C2 (stereo not drawn) | 1.16
14 | COCCNC(=O)c1cnn2c1NC(c1ccc(Br)cc1)CC2C(F)(F)F (stereo not drawn) | 1.02
15 | C[C@@H]1[C@H](c2ccccc2)OC(c2cccs2)N1C (stereo partly drawn) | -1.27
16 | O=C(O)CNc1nc(-c2ccccc2)nc2ccccc12 | 3.86
17 | O=S(=O)(c1ccc(Cl)nc1)N1CCN(c2ncccn2)CC1 | -1.36
18 | CC1(c2ccccc2)CC(C)(C)N(C(=O)C2CCCO2)c2ccccc21 (stereo not drawn) | 1.62
19 | CCOC(=O)C1=C(C)N=c2s/c(=C\c3ccccc3OC)c(=O)n2C1c1ccccc1 (stereo not drawn) | 9.09
20 | CCn1c(=O)c2sccc2n2c(CCC(=O)NCc3ccc(C)cc3)nnc12 | -2.41
21 | Cc1nn(CC(=O)NC(C)c2ccccc2)c(=O)c2ccccc12 (stereo not drawn) | 4.54

Row | SMILES | % Inhibition @ 10 uM [%]
22 | Brc1ccccc1-c1nc2ccccc2c2nc3ccccc3n12 | -4.23
23 | COc1ccc(O)c(C2=NN3C(C2)c2ccccc2OC3(C)C)c1 (stereo not drawn) | -1.68
24 | CC(C)(C)c1ccc(-c2noc(CCC(=O)Nc3cccnc3)n2)cc1 | -3.12
25 | COc1ccc(S(=O)(=O)N2CCC(C(=O)NC(C)c3ccccc3)CC2)cc1OC (stereo not drawn) | 3.16
26 | Cc1ccc(C(=O)NC2CCS(=O)(=O)C2)cc1 (stereo not drawn) | -2.15
27 | COc1ccc(C(=O)CC#N)cc1 | 0.66
28 | COc1ccc2ccc(C(=O)/C=C/c3ccncc3)cc2c1 | -2.56
29 | CCC[C@H](N[C@@H](c1ccc(-c2ccc(F)c(F)c2)cc1)C(F)(F)F)C(=O)NC1(C#N)CC1 | 0.173
30 | Cc1ccc(Cl)cc1N1CCN(CC(O)COC(C)C)CC1 (stereo not drawn) | 3.21
31 | CCN(CC)C(=O)Cn1cc(SCC(=O)NCc2ccc3c(c2)OCO3)c2ccccc21 | -7.1
32 | CCC(C)NC(=O)C(Cc1ccccc1)NS(=O)(=O)c1cccc2nsnc12 (stereo not drawn) | -3.23
33 | CC(NC(=O)C1CCN(S(=O)(=O)c2cccc3nonc23)CC1)c1ccccc1 (stereo not drawn) | 2.35
34 | OC(c1ccccc1)C(CN1CCOCC1)c1ccccc1 (stereo not drawn) | -1.56
35 | OCC1CCCN1Cc1ccccc1Br (stereo not drawn) | 6.06
36 | CC[N+]1=C(C)C(C)(C)c2cc(C)ccc21 | 0.238
37 | Fc1ccc(N2CCN(Cc3csc(-c4ccccc4)n3)CC2)cc1 | 2.6
38 | Cc1sc2nc(SCC(=O)c3ccccc3)nc(N)c2c1C | 12.9
39 | CN1C(=O)C(O)(CC(=O)c2ccccc2)c2cc(Br)ccc21 (stereo not drawn) | -2.32
40 | Cc1ccc(C)c(OCCCCCc2c(C)n[nH]c2C)c1 | -6.12
41 | CCc1ccccc1-n1nnc(-c2nc(-c3cccs3)no2)c1N | -1.87
42 | CC(C)CNC(=O)c1ccccc1NC(=O)c1ccccc1Br | 2.44

Row | SMILES | % Inhibition @ 10 uM [%]
43 | CC1C2=C(O)CC(C)(C)CC2=Nc2sc(C#N)c(N)c21 (stereo not drawn) | -6.07
44 | COc1ccccc1OCC(=O)Nc1cc(C)ccn1 | 2.56
45 | O=C1C2C3CCC(C3)C2C(=O)N1c1cccc(O)c1 (stereo not drawn) | -0.996
46 | CN(C)S(=O)(=O)c1ccc(C(=O)Nc2c3c(nn2-c2cccc(Cl)c2)CS(=O)(=O)C3)cc1 | 0.415
47 | O=[N+]([O-])c1cc(C(F)(F)F)ccc1N1CCCCC1 | 1.41
48 | Cc1ccc(-c2nc3ccccc3s2)cc1NC(=O)Cn1cnc2c(=O)n(C)c(=O)n(C)c21 | 10.6
49 | COc1ccc(C2C(C(=O)N3CCOCC3)=C(C)Nc3nc4ccccc4n32)cc1 (stereo not drawn) | -1.8
50 | CCOc1cc(C2C3=C(O)CC(c4ccccc4)CC3=NC(C)=C2C(=O)OC)cc(Cl)c1O (stereo not drawn) | 19.3
51 | COc1ccc(CN2CCN(Cc3ccc(Br)cc3)CC2)c(OC)c1 | 13.4
52 | CC(C)(CO)Nc1nc(NC2CCCCC2)nc(NC2CCCCC2)n1 | -7.01
53 | C=CCN1C(=O)NC(=O)/C(=C\c2ccc(O)c(O)c2)C1=O | 20.2
54 | Cc1ccc2ncc(S(=O)(=O)c3ccccc3)c(N3CCCCC3)c2c1 | -1.85
55 | CCN1CCN(c2nc3c(S(=O)(=O)c4ccc(Cl)cc4)nnn3c3ccsc23)CC1 | -5.26
56 | CN1CCN(C(=O)c2nn3c(C(F)(F)F)cc(-c4cccs4)nc3c2Cl)CC1 | -5.28
57 | CC(C)NC(=O)c1cccc(Cn2cc(Cl)cn2)c1 | -6.62
58 | Nc1c(-c2nc3ccccc3[nH]2)nnn1-c1cccc(C(F)(F)F)c1 | -2.28
59 | O=C1NC(=O)C(Cc2ccccc2)(CN2CCCCC2)C(=O)N1 | -0.925
60 | Cc1cc(C)c2nc(NC(=O)c3sc(C)nc3C)sc2c1 | 5.54
61 | O=C(CN1C(=O)c2ccccc2C1=O)NCc1ccc(C(=O)O)cc1 | 20.5
62 | CCCN1CCN(C(=O)Cc2c(C)nc3c(-c4ccccc4)c(C)nn3c2C)CC1 | 0.953
63 | CN(Cc1ccco1)C(=O)CN1N=C(c2ccccc2)CCC1=O | -0.0542
